For one molecule, binding result and Kd results are on record in patent US20250114450A1 (AKESO BIOPHARMA, published 2025).

The target in one test is T1, C1q (UniProt P02745; P02746; P02747).
T1 construct: the three subunits are from general knowledge; also called serum complement C1q; complement C1q
Briefly: BLI (Fortebio Octet), antibody on FAB2G sensor. As to the method: 50 μg/mL antibody was immobilized on the FAB2G sensor at an immobilization height of about 2.0 nm. […] The antigen and antibody were dissociated in the buffer for 60 s. The sensor was refreshed 4 times in 10 mM glycine pH 1.7, each for 5 s. The shaking speed of the sample plate was 1000 rpm, the temperature was 30° C. and the frequency was 0.6 Hz. The data were analyzed by 1:1 model fitting to obtain affinity constants. The data acquisition software was Fortebio Data Acquisition 7.0, and the data analysis software was Fortebio Data Analysis 7.0.
For orientation: BLI is a label-free optical method that tracks binding on a fibre tip over time.

Another test addresses T2, FcγRIIIa_F158 (UniProt P08637 partial chain).
T2 construct: also called hFcGR3A(F158)-his; not shown: his tag
As to the kind of experiment: BLI (Fortebio Octet), FcγRIIIa_F158 on HIS1K sensor. As to the method:
5 μg/mL FcγRIIIa_F158 was immobilized on the HIS1K sensor for 120 s. The sensor was equilibrated in a buffer for 60 s, and the binding of the immobilized hFcGR3A(F158)-his on the sensor to the antibodies at concentrations of 31.25-500 nM (serial two-fold dilution) was determined for 60 s. The antibody was dissociated in the buffer for 60 s. The sensor was refreshed 4 times in 10 mM glycine pH 1.5, each for 5 s. The detection temperature was 30° C. and the frequency was 0.3 Hz. The data were analyzed by 1:1 model fitting to obtain affinity constants.

The next test deals with T3, FcγRI (UniProt P12314 16-288, limits assumed).
T3 construct: construct not described; also called CD64; FcγRIa
As to the kind of experiment: BLI (Fortebio Octet), FcγRI immobilized on HIS1K sensor, antibody 3.12-50 nM, 1:1 fit. As to the method:
1 μg/mL FcγRIa was immobilized on the HIS1K sensor for 50 s. The sensor was equilibrated in a buffer for 60 s, and the binding of the immobilized CD64 on the sensor to the antibodies at concentrations of 3.12-50 nM (two-fold dilution) was determined for 120 s. The antibody was dissociated in the buffer for 120 s. The sensor was refreshed 4 times in 10 mM glycine pH 1.5, each for 5 s. The detection temperature was 30° C. and the frequency was 0.3 Hz. The data were analyzed by 1:1 model fitting to obtain affinity constants.

FcγRIIIa_F158, sequence (P08637 17-208 limits assumed): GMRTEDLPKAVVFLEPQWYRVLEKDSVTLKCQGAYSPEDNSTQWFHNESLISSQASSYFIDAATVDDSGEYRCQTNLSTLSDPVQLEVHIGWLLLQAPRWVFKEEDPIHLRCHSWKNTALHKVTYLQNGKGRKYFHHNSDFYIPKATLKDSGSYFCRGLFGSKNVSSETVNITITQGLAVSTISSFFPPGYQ
C1q, sequence (P02745 23-245 limits assumed, chain 1 of 3): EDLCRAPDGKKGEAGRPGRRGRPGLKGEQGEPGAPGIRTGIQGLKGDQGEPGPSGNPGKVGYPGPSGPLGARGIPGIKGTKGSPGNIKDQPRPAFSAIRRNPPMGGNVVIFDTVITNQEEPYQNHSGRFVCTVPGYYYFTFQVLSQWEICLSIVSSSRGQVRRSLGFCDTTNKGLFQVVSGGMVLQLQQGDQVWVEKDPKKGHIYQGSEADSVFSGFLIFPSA
C1q, sequence (P02746 28-253 limits assumed, chain 2 of 3, further chain): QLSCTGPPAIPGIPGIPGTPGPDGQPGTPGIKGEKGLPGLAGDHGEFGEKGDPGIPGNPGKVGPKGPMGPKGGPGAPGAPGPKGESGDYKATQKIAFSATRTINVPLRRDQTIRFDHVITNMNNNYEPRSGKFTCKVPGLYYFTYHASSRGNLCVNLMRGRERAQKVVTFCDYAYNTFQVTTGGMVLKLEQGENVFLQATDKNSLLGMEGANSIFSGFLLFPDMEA
C1q, sequence (P02747 29-245 limits assumed, chain 3 of 3, further chain): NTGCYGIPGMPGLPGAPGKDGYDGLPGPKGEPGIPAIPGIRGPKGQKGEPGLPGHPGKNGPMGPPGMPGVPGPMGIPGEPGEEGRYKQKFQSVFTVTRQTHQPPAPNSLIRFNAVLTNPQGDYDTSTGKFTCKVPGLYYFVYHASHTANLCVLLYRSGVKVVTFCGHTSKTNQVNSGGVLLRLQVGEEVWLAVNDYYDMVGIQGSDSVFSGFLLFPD
FcγRI, sequence (P12314 16-288 limits assumed): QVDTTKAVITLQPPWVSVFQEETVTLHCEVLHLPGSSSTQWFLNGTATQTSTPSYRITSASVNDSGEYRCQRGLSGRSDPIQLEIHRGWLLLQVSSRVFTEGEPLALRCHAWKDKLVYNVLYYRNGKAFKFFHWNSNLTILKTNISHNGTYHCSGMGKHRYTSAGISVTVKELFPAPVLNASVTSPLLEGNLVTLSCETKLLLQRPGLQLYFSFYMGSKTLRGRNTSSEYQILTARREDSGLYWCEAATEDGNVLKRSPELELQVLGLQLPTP

B1: VP101(hG4WT) (bispecific antibody, human IgG4 S228P, kappa)
heavy: EVQLVESGGGLVQPGGSLRLSCAASGYTFTNYGMNWVRQAPGKGLEWVGWINTYTGEPTYAADFKRRFTFSLDTSKSTAYLQMNSLRAEDTAVYYCAKYPHYYGSSHWYFDVWGQGTLVTVSSASTKGPSVFPLAPCSRSTSESTAALGCLVKDYFPEPVTVSWNSGALTSGVHTFPAVLQSSGLYSLSSVVTVPSSSLGTKTYTCNVDHKPSNTKVDKRV[sequence of human IgG4 Fc with S228P (EU numbers) omitted]GGGGSGGGGSGGGGSGGGGSEVQLVESGGGLVQPGGSLRLSCAASGFAFSSYDMSWVRQAPGKGLDWVATISGGGRYTYYPDSVKGRFTISRDNSKNNLYLQMNSLRAEDTALYYCANRYGEAWFAYWGQGTLVTVSSGGGGSGGGGSGGGGSGGGGSDIQMTQSPSSMSASVGDRVTFTCRASQDINTYLSWFQQKPGKSPKTLIYRANRLVSGVPSRFSGSGSGQDYTLTISSLQPEDMATYYCLQYDEFPLTFGAGTKLELKR
light: DIQMTQSPSSLSASVGDRVTITCSASQDISNYLNWYQQKPGKAPKVLIYFTSSLHSGVPSRFSGSGSGTDFTLTISSLQPEDFATYYCQQYSTVPWTFGQGTKVEIKRTVAAPSVFIFPPSDEQLKSGTASVVCLLNNFYPREAKVQWKVDNALQSGNSQESVTEQDSKDSTYSLSSTLTLSKADYEKHKVYACEVTHQGLSSPVTKSFNRGEC
notes: IgG-scFv (Morrison form), Ig gamma-4 constant region (P01861.1 as stated); also called VP101(G4M)
As for B1, the values for the binding result with C1q and in the test with FcγRIIIa_F158 were “no binding (tested: C1q 0.625-10 nM)” and “no binding (tested: antibody 31.25-500 nM)”, respectively. Besides, binding in the test with FcγRI was characterised by a dissociation constant (Kd) of 8.52 nM.
